Measured values: PubChem BioAssay AID1240 (Sanford-Burnham Center for Chemical Genomics, 2008)
The campaign covered roughly 50,000 compounds. About 800 (1.6%) showed an effect of 50% or more. This is one part of the list.

Molecular target: Bcl-2-like protein 10 (Homo sapiens) (UniProt Q9HD36)
Experiment: TR3 peptide-Bcl-B binding displacers, biochemical primary FP assay, phenotype converters (AID 1240);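 also: 0% = Bcl-B with tracer peptide and DMSO and 100% = tracer peptide lacking Bcl-B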
Details: GST-Bcl-B / FITC-TR3 peptide fluorescence polarization; stronger effect = higher value; compound at 3.75 mg/L

UniProt Q9HD36, sequence (Q9HD36 whole entry, looked up): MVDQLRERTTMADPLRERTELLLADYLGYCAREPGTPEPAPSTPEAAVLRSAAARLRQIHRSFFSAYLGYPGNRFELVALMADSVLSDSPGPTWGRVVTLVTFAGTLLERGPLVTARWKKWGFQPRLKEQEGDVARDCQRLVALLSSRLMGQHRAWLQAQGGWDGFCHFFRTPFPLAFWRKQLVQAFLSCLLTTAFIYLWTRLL

| Structure (SMILES) | displacement |
| --- | --- |
| CN1CCN(c2nc3ccccc3nc2N2CCN(C)CC2)CC1 | -10.7% |
| O=C(O)C(Cc1ccccc1)N1C(=O)/C(=C/c2ccc(F)cc2)SC1=S (stereo not given) | 5.3% |
| COc1cc(NC(=O)c2cnn3c2NC(c2cccs2)CC3C(F)(F)F)c(OC)cc1Cl (stereo not given) | 1.3% |
| CCC(=O)N(CCC1(c2ccccc2)CCOC(C)(C)C1)Cc1ccc(N(C)C)cc1 (stereo not given) | 1.3% |
| Nc1c(C(=O)Nc2ccccc2)nnn1Cc1ccccc1 | -7.1% |
| O=C(c1cccnc1)N1CCC(Cc2ccccc2)CC1 | 0.5% |
| CCCc1ccc(-c2nc(-c3ccc(C)cc3)no2)cc1 | -16.3% |
| Cc1nc2cc(-c3ccc(Cl)cc3)nn2c(C)c1Cl | -3.3% |
| Fc1ccc(NC(=S)N2CCCc3ccccc32)cc1 | -3.9% |
| Oc1ccc(Br)cc1/C=N/Nc1cc(N2CCOCC2)nc(N2CCOCC2)n1 | 15.1% |
| COc1ccc(NC(=O)CN(c2ccc(OC)cc2)S(=O)(=O)c2ccc(C)cc2)cc1 | 5% |
| CCOC(=O)CNC(=O)c1cc(C(=O)OC)cc([N+](=O)[O-])c1 | 5.2% |
| CCOC(=O)Cc1csc(NC(=O)COc2cc(C)ccc2C(C)(C)C)n1 | -1.3% |
| Cc1ccc(C)c(N2C(=O)C3C4C=CC(C5CC45)C3C2=O)c1 (stereo not given) | 2.7% |
| CC(NC(=O)C(=O)NCCN1CCN(C(=O)c2ccc(Cl)cc2Cl)CC1)c1ccccc1 (stereo not given) | -4.3% |
| Cc1cccc(NC(=O)CSc2nnc(-c3ccccc3)c(-c3ccccc3)n2)c1 | 15.1% |
| O=C(Nc1cccc(Cl)c1)Nc1nnc(COc2ccc(Br)cc2)s1 | 25.9% |
| CCOC(=O)c1cc2c(n(-c3ccccc3)c1=O)CCCC2=O | 0.6% |
| CCOC(=O)c1cc(-c2ccc(O)cc2)nc2ccccc12 | 8.3% |
| O=C(CSc1nc2ccccc2s1)Nc1ccc(F)c([N+](=O)[O-])c1 | -4.2% |
| COc1ccc(C(=O)Nc2nc3ccccc3s2)c(OC)c1 | 15% |
| Cc1ccc(N2C(=O)NC(=O)/C(=C/c3cccc(C(F)(F)F)c3)C2=O)cc1 | -4% |

| Structure (SMILES) | displacement |
| --- | --- |
| Cc1cccc(C(=O)NNC(=O)c2ccc(Cl)cc2)c1O | -4.5% |
| O=S(=O)(Nc1ccc2c(c1)OCO2)c1ccc2ccccc2c1 | 15.4% |
| NS(=O)(=O)c1ccc(-c2ccc(/C=C3/SC(=S)N(CC(=O)O)C3=O)o2)cc1 | -123% |
| C=CCNC(=O)C(=O)Nc1ccc(Cl)c(Cl)c1 | 10.8% |
| CCCC(=O)Nc1ccc2oc(-c3cc(Br)ccc3Cl)nc2c1 | -6.6% |
| O=[N+]([O-])c1ccc(Cl)c(S(=O)(=O)NCc2ccccn2)c1 | 12.3% |
| CCCCc1ccc(-c2csc(/C(C#N)=C/c3ccc(O)c(OCC)c3)n2)cc1 | 6.2% |
| O=C(CCCC(=O)N1CCCCC1)NCc1ccco1 | 5.5% |
| O=C(NC(=O)c1ccccc1)Oc1ccc([N+](=O)[O-])cc1 | -1.2% |
| O=C(O)CCC(=O)Nc1ccccc1-c1ccccc1 | 15.5% |
| CCOc1ccc(NC(=O)C2=C(C)NC(=O)NC2c2cccc(OC)c2OC)cc1 (stereo not given) | -7% |
| CCN(CC)c1ccc(Nc2nc(-c3c(C)nc4ccccn34)cs2)cc1 | -34.4% |
| COc1ccc(OC(C)C(=O)Nc2ccc(F)cc2)cc1 (stereo not given) | 12.3% |
| Cc1cc(C)cc(N2C(=O)NC(=O)/C(=C\c3ccc(N4CCOCC4)o3)C2=O)c1 | -145% |
| COc1cc(SC)ccc1C(=O)N1CCCC(C)C1 (stereo not given) | 0.6% |
| C=CCN1C(=O)/C(=C/c2c(C)cc(C)cc2C)SC1=S | 5.5% |
| CC(C)c1ccc(-c2nc3sc4c(c3c(=O)[nH]2)CCCC4)cc1 | -13.5% |
| O=C(Nc1ccccn1)c1ccccc1O | 1% |
| Cc1n[nH]c(C)c1CCCCOc1ccccc1 | 11.1% |
| CCc1ccccc1NC(=O)/C(C#N)=C\c1ccc(Sc2ccccc2)o1 | -12.2% |
| O=C1N=c2ccc(Br)cc2=C1c1sc(=S)n(Cc2ccco2)c1O | 22.5% |
| CC(C)CNC(=O)NC1C(NC(=O)NCC(C)C)N(C)C(=O)N1C (stereo not given) | 0.7% |

| Structure (SMILES) | displacement |
| --- | --- |
| COc1ccc(C(=O)NCCNc2ccc([N+](=O)[O-])cc2)cc1OC | 6.5% |
| O=[N+]([O-])c1ccc(C2NN=C(c3ccccc3)S2)cc1 (stereo not given) | -1.4% |
| CCN1C(=O)/C(=C\c2ccccc2OCCOc2cccc(OC)c2)SC1=S | 0.8% |
| CC/C(=N\NC(=O)c1ccc(C)o1)c1ccccc1O | -6.5% |
| Cc1cccc(C)c1NC(=O)C1CCCNC1 (stereo not given) | -4.6% |
| C/C(=N\N=C1\NC(=O)C(CC(=O)Nc2ccc(Cl)cc2Cl)S1)c1ccc(Cl)cc1 (stereo not given) | 15.5% |
| O=C(Nc1ccc(Cl)cc1)c1ccccc1F | -4.2% |
| CCOC(=O)C1NN=C(C(=O)c2ccccc2)C1c1ccc(Cl)cc1 (stereo not given) | 0.8% |
| CC(C)COC(=O)c1ccc(NC(=O)COc2ccc(Cl)cc2Cl)cc1 | -2.5% |
| O=C(Nc1ccc(Cl)cc1Cl)c1ccc(I)cc1 | 8.9% |
| O=C(NC(=S)Nc1ccc(-c2nc3ccccc3s2)cc1)c1ccccc1Cl | -1.6% |
| COc1cc(OC)cc(C(=O)NC2CC2)c1 | 2.2% |
| COc1ccc2[nH]c(C(=O)N3CCOCC3)cc2c1 | -16.2% |
| COc1cc(OC)cc(C(=O)Nc2cccc(NC(C)=O)c2)c1 | -6.4% |
| CCN(CC)C(=O)c1cnn(-c2ccccc2)c1NC(=O)c1ccccc1Cl | 9.1% |
| Oc1c(Cl)cc(Cl)cc1/C=N/N=C/c1cc(Cl)cc(Cl)c1O | 2.9% |
| C/C(=N\N=C1\NC(=O)C(CC(=O)Nc2ccccc2C(F)(F)F)S1)c1ccco1 (stereo not given) | -7.9% |
| CCN1C(=O)/C(=C\c2ccc(-c3ccc(Cl)cc3Cl)o2)SC1=S | 11.4% |
| O=c1[nH]c(/C=C\c2ccccc2Cl)c([N+](=O)[O-])c(=O)[nH]1 | 12.4% |
| Cc1ccc(NC(=O)CC2SC(=Nc3ccccc3)N(c3ccccc3)C2=O)cc1 (stereo not given) | -2.2% |
| CCOc1cc(/C=N/NC(=O)C(=O)Nc2ccccc2OC)ccc1O | 6.3% |
| Cc1cc2c(cc1C)-c1nc3ccccc3c(=O)n1C(C)(C)C2 | 6.6% |

| Structure (SMILES) | displacement |
| --- | --- |
| O=C(CNc1n[nH]c(=O)[nH]c1=O)N/N=C/c1ccc(C(F)(F)F)cc1 | -5.8% |
| COc1ccc(CN2CCN(C(=O)C(c3ccccc3)c3ccccc3)CC2)c(OC)c1 | 18.2% |
| CCOc1ccc(C(=O)NCc2cccs2)cc1OCC | -0.9% |
| Cc1ccc(N2C(=O)CC(N3CCCC3)C2=O)cc1 (stereo not given) | -2% |
| CN1C(=O)NC(=O)/C(=C/c2ccc(O)c([N+](=O)[O-])c2)C1=O | -7.9% |
| CCn1nnnc1-c1ccc(OC)c(S(=O)(=O)NCCc2ccc(OC)c(OC)c2)c1 | 8.3% |
| O=C(Nc1ccc2[nH]c(=O)[nH]c2c1)c1cc(C(F)(F)F)cc(C(F)(F)F)c1 | -9.6% |
| Cc1cc(OCC(=O)Nc2ccc3oc(-c4cccnc4)nc3c2)cc(C)c1Cl | -5.1% |
| CCN(C(=O)c1cc2cc(OC)ccc2oc1=O)c1ccccc1 | 0.4% |
| O=C(c1ccccc1[N+](=O)[O-])N1CCN(C/C=C/c2ccccc2)CC1 | 9.8% |
| CN(C)c1ccc(NC(=O)Cc2ccc(Cl)cc2)cc1 | -2.4% |
| Cc1cccc(-n2c(C)cc(/C=N/NC(=O)c3cccnc3)c2C)c1 | -30.1% |
| CCCCOc1ccc2c(C)c(CC)c(=O)oc2c1C | -3.1% |
| O=C(COc1ccccc1)NCC(=O)N/N=C/C(Br)=C/c1ccccc1 | -1.7% |
| Cc1ccc(N2C(=O)CC(NCCc3ccccc3Cl)C2=O)cc1 (stereo not given) | 8.7% |
| O=C(Nc1ccc(Br)cc1Br)c1ccccc1F | 1.2% |
| O=C1CC(N2CCN(c3ccccn3)CC2)C(=O)N1c1cccc2ccccc12 (stereo not given) | 1.5% |
| CC1=C(C(=O)Nc2ccc(C)cc2)C(c2ccc([N+](=O)[O-])cc2)NC(=O)N1 (stereo not given) | -3.6% |
| Cc1ccc(NC(=O)C2CC2(c2ccccc2)c2ccccc2)cc1 (stereo not given) | 4.1% |
| Cc1ccc(C(=O)Oc2ccc(/C=c3/sc4nc5ccccc5n4c3=O)cc2)cc1 | 10.2% |
| c1ccc(CCCN2CCN(C3CCN(Cc4ccccc4)CC3)CC2)cc1 | -7.2% |
| CCOC(=O)c1cc(=O)n2[nH]c(-c3ccc(Cl)cc3)cc2n1 | -8.7% |

| Structure (SMILES) | displacement |
| --- | --- |
| COc1ccc(S(=O)(=O)N2CCC(CN3C(=O)c4cccc5cccc(c45)C3=O)CC2)cc1 | 4.9% |
| O=C(COC(=O)c1ccc(S(=O)(=O)N2CCCCC2)cc1)c1cccc([N+](=O)[O-])c1 | -1.1% |
| CCOc1cccc(C(=O)Nc2ccccc2C(=O)O)c1 | 12.4% |
| Cc1cc(C)nc(NC(N)=NC2CCCCCC2)n1 | -10.2% |
| O=C1c2ccccc2C(=O)N1CCCSc1nc2ccccc2o1 | -11.9% |
| Cc1cc(C)c(C(N)=O)c(Nc2cc(Cl)ccc2Cl)n1 | -13.9% |
| O=C(CCN1C(=O)S/C(=C\c2ccccc2)C1=O)Nc1ccccc1 | 10.5% |
| C=CCn1c(O)c(C2=c3cc(Cl)ccc3=NC2=O)sc1=S | -14.2% |
| Cc1cc2nc3s/c(=C\c4cccc(Cl)c4Cl)c(=O)n3c2cc1C | 1.7% |
| COC(=O)c1ccc(Cl)c(NC(=O)C(C)NC(=O)C(c2ccccc2)c2ccccc2)c1 (stereo not given) | 1.1% |
| O=C1C(Cl)=C(Nc2ccc(Cl)cc2)C(=O)c2ccccc21 | -9.7% |
| C=CCN1C(=O)/C(=C\c2ccc(C(=O)OC)cc2)C(=O)NC1=S | 16.1% |
| C/C(=N\NC(=O)CCc1ccccc1)c1cccc(N)c1 | 4.1% |
| O=c1/c(=C/c2cccc(C(F)(F)F)c2)sc2nc3ccccc3n12 | 4.3% |
| CC(=O)NC(=N/OC(C)=O)/C(=N/OC(C)=O)c1nc2ccccc2[nH]1 | -2.3% |
| O=C(/C=C/c1cccc([N+](=O)[O-])c1)NCc1ccco1 | -3.6% |
| Cc1cccc(N2C(=O)NC(=O)/C(=C\c3ccc(-c4ccccc4C(=O)O)o3)C2=O)c1 | -5.1% |
| CC(C)OC(=O)C1C(=O)CC(C)(O)C(C(=O)OC(C)C)C1c1ccc(F)cc1 (stereo not given) | 1.1% |
| COC(=O)c1ccc(/C=N/NC(=O)CCc2c(C)n[nH]c2C)cc1 | 4.2% |
| Cc1cc(C)nc(Nc2nc3ccccc3s2)n1 | -8% |
| COc1ccc(Cc2noc(Cc3ccc(Cl)cc3)n2)cc1 | -5.3% |
| Cc1ccc(C)c(NC(=O)COc2ccc3ccccc3c2)c1 | -4.6% |
